Assay results published in article PMC4336329 (PLoS ONE, 2015).
Screen size: about 310,000 compounds; about 14,000 (4.5%) showed an effect of 50% or more. The effect is printed as a negative number. The list shows a part of the results.

molecular target: human ether-à-go-go-related gene (hERG) potassium channel (human, UniProt Q12809); test: primary screen, population patch clamp on CHO cells stably expressing hERG
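Note: peak tail current of the secondary pulse compared with the same well before compound.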

Sequence of human ether-à-go-go-related gene (hERG) potassium channel (Q12809 whole entry, looked up): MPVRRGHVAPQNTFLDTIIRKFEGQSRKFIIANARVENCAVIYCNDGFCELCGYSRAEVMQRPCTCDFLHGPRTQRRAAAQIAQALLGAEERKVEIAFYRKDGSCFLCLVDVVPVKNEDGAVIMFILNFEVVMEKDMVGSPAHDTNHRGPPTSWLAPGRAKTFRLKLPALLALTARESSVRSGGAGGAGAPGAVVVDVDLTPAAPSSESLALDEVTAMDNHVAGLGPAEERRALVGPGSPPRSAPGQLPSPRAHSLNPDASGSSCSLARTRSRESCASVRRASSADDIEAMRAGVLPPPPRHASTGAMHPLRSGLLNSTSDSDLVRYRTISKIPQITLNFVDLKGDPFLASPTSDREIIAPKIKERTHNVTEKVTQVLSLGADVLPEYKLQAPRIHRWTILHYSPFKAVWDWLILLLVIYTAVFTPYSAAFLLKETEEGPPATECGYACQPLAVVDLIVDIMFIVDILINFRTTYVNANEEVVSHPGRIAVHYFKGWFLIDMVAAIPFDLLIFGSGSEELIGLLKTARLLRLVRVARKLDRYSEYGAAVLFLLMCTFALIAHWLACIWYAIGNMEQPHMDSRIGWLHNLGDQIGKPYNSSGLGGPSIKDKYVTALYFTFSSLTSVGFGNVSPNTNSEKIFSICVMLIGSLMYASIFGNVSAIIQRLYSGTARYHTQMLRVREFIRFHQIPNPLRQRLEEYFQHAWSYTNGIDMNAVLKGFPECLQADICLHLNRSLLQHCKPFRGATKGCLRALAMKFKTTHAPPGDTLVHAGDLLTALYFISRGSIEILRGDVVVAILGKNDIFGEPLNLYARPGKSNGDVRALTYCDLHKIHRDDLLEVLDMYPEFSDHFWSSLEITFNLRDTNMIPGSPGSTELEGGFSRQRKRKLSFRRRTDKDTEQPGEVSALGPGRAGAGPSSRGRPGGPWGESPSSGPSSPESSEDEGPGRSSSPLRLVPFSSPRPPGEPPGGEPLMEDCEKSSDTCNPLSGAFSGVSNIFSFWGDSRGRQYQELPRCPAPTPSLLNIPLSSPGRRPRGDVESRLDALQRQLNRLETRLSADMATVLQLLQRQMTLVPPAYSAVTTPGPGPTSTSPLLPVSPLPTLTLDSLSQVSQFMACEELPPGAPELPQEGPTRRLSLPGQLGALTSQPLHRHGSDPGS

Question: For `CC(=O)Nc1ccc(S(=O)(=O)NNC(=S)NCC2CCCO2)cc1` (centres unmarked), which “hERG current change (%, negative = inhibition) at 10uM” value is on record?
Answer: The value was 6.75%.

Question: For `Cc1cc(C(=O)O)n(C(C)(C)C)n1`, which “hERG current change (%, negative = inhibition) at 10uM” value is on record?
Answer: The value was 8.47%.

Question: Which “hERG current change (%, negative = inhibition) at 10uM” value does the source give for `CCN(CCO)C(=O)CC(c1ccccc1)c1cc(Br)ccc1O` (centres unmarked) here?
Answer: The value was -14.5%.

Question: For `CCCC(=O)N1CC2(CCC)CN(C(=O)CCC)CC(CCC)(C1)C2=O`, which “hERG current change (%, negative = inhibition) at 10uM” value is on record?
Answer: Its value is -8.46%.

Question: How did the “hERG current change (%, negative = inhibition) at 10uM” value turn out when `C=C(C)c1cccc(C(C)(C)NC(=O)NC2CN3CCC2CC3)c1` (centres unmarked) was run?
Answer: Its value is 1.14%.

Question: `CC(C)CC1Nc2ncnc(N3CCN(c4ccccc4)CC3)c2N(Cc2ccc(Cl)cc2)C1=O.O=C(O)C(F)(F)F` (centres unmarked) was tested. Which “hERG current change (%, negative = inhibition) at 10uM” value did it give?
Answer: Its value is -2.17%.

Question: For `CN1CCN(C(=O)C2CCCN(S(=O)(=O)c3ccc(Cl)cc3)C2)CC1` (centres unmarked), which “hERG current change (%, negative = inhibition) at 10uM” value is on record?
Answer: Its value is -18.8%.

Question: `O=C(NCc1cccc(C(F)(F)F)c1)C1CC(c2ccccc2F)=NO1` (centres unmarked) was tested. Which “hERG current change (%, negative = inhibition) at 10uM” value did it give?
Answer: Its value is -6.12%.

Question: For `COc1cc2cc(CCCOC(=O)c3ccc(C(F)(F)F)cc3)oc(=O)c2cc1OC`, which “hERG current change (%, negative = inhibition) at 10uM” value is on record?
Answer: Its value is -18.6%.

Question: For `Cc1ccc(CNC(=O)Cn2nnc(C(=O)Nc3cccc(C)c3C)c2N)cc1`, which “hERG current change (%, negative = inhibition) at 10uM” value is on record?
Answer: Its value is 13.1%.

Question: With `O=C(NNC(=O)c1ccc(SCC2CCCO2)c([N+](=O)[O-])c1)c1ccc(Cl)c([N+](=O)[O-])c1` (centres unmarked) as the compound, how does the “hERG current change (%, negative = inhibition) at 10uM” value read?
Answer: The value was -12.3%.

Question: With `O=C(CN1CCN(c2ccc(F)cc2)CC1)Nc1cccnc1Cl` as the compound, how does the “hERG current change (%, negative = inhibition) at 10uM” value read?
Answer: The value was 13.3%.

Question: How did the “hERG current change (%, negative = inhibition) at 10uM” value turn out when `Cc1cccc(-c2oc(C)c(C)[n+]2[O-])c1.Cl` was run?
Answer: Its value is -6.92%.

Question: How did the “hERG current change (%, negative = inhibition) at 10uM” value turn out when `Cc1ccccc1N=C(NO)c1cccnc1` was run?
Answer: The value was 5.78%.

Question: For `NC(=O)/C(=C\c1ccco1)NC(=O)c1ccc(Br)o1`, which “hERG current change (%, negative = inhibition) at 10uM” value is on record?
Answer: The value was 4.3%.

Question: `O=c1n(Cc2ccccc2Cl)nc2n1-c1ccccc1SC2` was tested. Which “hERG current change (%, negative = inhibition) at 10uM” value did it give?
Answer: Its value is 0.692%.

Question: Which “hERG current change (%, negative = inhibition) at 10uM” value does the source give for `COc1ccc(N=C2C(=Nc3ccc(OC)cc3)N(c3ccc(N(C)C)cc3)C(=S)N2c2ccc(OC)cc2)cc1` here?
Answer: Its value is -6.16%.

Question: `CCOC(=O)C1CCCN(C(=O)c2ccco2)C1` (centres unmarked) was tested. Which “hERG current change (%, negative = inhibition) at 10uM” value did it give?
Answer: The value was -1.06%.

Question: How did the “hERG current change (%, negative = inhibition) at 10uM” value turn out when `Cc1nc(S(=O)(=O)Cc2ccccc2Cl)nc2c1CCC2` was run?
Answer: Its value is 24.1%.

Question: For `COc1ccc(C(=O)CSc2nnc(-c3cc(C)on3)o2)cc1`, which “hERG current change (%, negative = inhibition) at 10uM” value is on record?
Answer: The value was 9.46%.

Question: For `Cc1cccc(OCc2nnc(SCC(=O)N3CCCCC3)o2)c1`, which “hERG current change (%, negative = inhibition) at 10uM” value is on record?
Answer: Its value is 2.26%.

Question: Which “hERG current change (%, negative = inhibition) at 10uM” value does the source give for `O=C(Cc1ccc(Cl)cc1)Nc1ccc(C(=O)N2CCCCC2)cc1` here?
Answer: The value was 14.5%.

Question: How did the “hERG current change (%, negative = inhibition) at 10uM” value turn out when `N#C/C(=C\c1ccc(-c2ccccc2[N+](=O)[O-])o1)C(N)=O` was run?
Answer: Its value is 24.6%.

Question: With `CCOc1ccccc1NC(=O)N1CCC2(CC1)OCCO2` as the compound, how does the “hERG current change (%, negative = inhibition) at 10uM” value read?
Answer: Its value is -7.18%.

Question: For `CN(C)c1ccnc(SCc2ccccc2Cl)c1C#N`, which “hERG current change (%, negative = inhibition) at 10uM” value is on record?
Answer: The value was 8.48%.

Question: `Cc1cc(NC(=O)c2cc(-c3cccnc3)nc3c(C)c(C)ccc23)no1` was tested. Which “hERG current change (%, negative = inhibition) at 10uM” value did it give?
Answer: Its value is -1.82%.

Question: With `O=C(NCc1ccco1)/C(=C\c1ccco1)NC(=O)c1ccc(Br)o1` as the compound, how does the “hERG current change (%, negative = inhibition) at 10uM” value read?
Answer: The value was -11.8%.

Question: How did the “hERG current change (%, negative = inhibition) at 10uM” value turn out when `CC(C)c1ccc(-c2nnn(CC(=O)N3CCCCC3)n2)cc1` was run?
Answer: Its value is 1.06%.

Question: Which “hERG current change (%, negative = inhibition) at 10uM” value does the source give for `COc1ccc(S(=O)(=O)N2CCOCC2)cc1C(=O)NCc1ccccc1CN1CCCC1` here?
Answer: The value was -20.6%.

Question: `Cc1ccc2nc(CCc3nc4ccc(C)cc4o3)oc2c1` was tested. Which “hERG current change (%, negative = inhibition) at 10uM” value did it give?
Answer: The value was 4.09%.

Question: Which “hERG current change (%, negative = inhibition) at 10uM” value does the source give for `CC(=O)C1=C(C)NC(=O)NC1c1ccccc1` (centres unmarked) here?
Answer: Its value is 8.76%.

Question: With `CCOC(=O)N1CCC(NC(=O)C(NS(=O)(=O)c2ccc3c(c2)CCN3C(=O)CC)C(C)C)CC1` (centres unmarked) as the compound, how does the “hERG current change (%, negative = inhibition) at 10uM” value read?
Answer: Its value is -6.47%.

Question: With `COc1cc2cc(C(=O)Nc3ccc4c(c3)OCCO4)[nH]c2cc1OC` as the compound, how does the “hERG current change (%, negative = inhibition) at 10uM” value read?
Answer: The value was 20.7%.

Question: For `Cc1ccc(OCC(=O)Nc2cc(C(=O)O)cc(C(=O)O)c2)cc1C`, which “hERG current change (%, negative = inhibition) at 10uM” value is on record?
Answer: The value was 8.87%.

Question: For `C/C(CC(=O)Nc1ccc(N(C)C)cc1)=N\NC(=O)c1ccccn1`, which “hERG current change (%, negative = inhibition) at 10uM” value is on record?
Answer: The value was 7.77%.

Question: For `Cc1noc(C)c1COC(=O)C1CCN(S(=O)(=O)c2ccc(F)cc2)CC1`, which “hERG current change (%, negative = inhibition) at 10uM” value is on record?
Answer: Its value is -33.7%.

Question: Which “hERG current change (%, negative = inhibition) at 10uM” value does the source give for `CCOc1ccc(Cc2nnc(SCC(N)=O)n2C)cc1` here?
Answer: Its value is -1.77%.

Question: For `Cc1cccc(C)c1NC(=O)NNC(=O)c1cc(C(C)(C)C)nn1Cc1ccccc1`, which “hERG current change (%, negative = inhibition) at 10uM” value is on record?
Answer: The value was 0.818%.

Question: `Cc1ccc(-n2nnc3c(=O)oc4ccccc4c32)cc1` was tested. Which “hERG current change (%, negative = inhibition) at 10uM” value did it give?
Answer: The value was 5.81%.

Question: With `COC(=O)c1cc(NC(=O)C2CC(=O)NC(=NCc3ccc(OC)cc3)S2)cc(C(=O)OC)c1` (centres unmarked) as the compound, how does the “hERG current change (%, negative = inhibition) at 10uM” value read?
Answer: The value was 3.45%.

Question: How did the “hERG current change (%, negative = inhibition) at 10uM” value turn out when `CC(C)(C)NC(=O)NC(=O)CN1CCN(S(=O)(=O)c2ccc3c(c2)OCCO3)CC1` was run?
Answer: Its value is -3.8%.

Question: For `COc1cc2ncnc(NCc3cccs3)c2cc1OC`, which “hERG current change (%, negative = inhibition) at 10uM” value is on record?
Answer: Its value is -17.3%.

Question: `Nc1ccc(-c2nnnn2-c2ccc(N)cc2)cc1` was tested. Which “hERG current change (%, negative = inhibition) at 10uM” value did it give?
Answer: The value was 26.5%.

Question: With `CCOC(=O)N1CCN(c2c(-c3ccc(C)cc3)c(=O)c2=O)CC1` as the compound, how does the “hERG current change (%, negative = inhibition) at 10uM” value read?
Answer: Its value is -29.7%.

Question: With `CCCC1(C(=O)OC)NC(c2ccc(OC)c(OC)c2)C2C(=O)N(c3ccc4c(c3)OCO4)C(=O)C21` (centres unmarked) as the compound, how does the “hERG current change (%, negative = inhibition) at 10uM” value read?
Answer: Its value is 16.7%.

Question: Which “hERG current change (%, negative = inhibition) at 10uM” value does the source give for `COC(=O)Nc1nc2c(s1)CCCC2` here?
Answer: The value was 11%.

Question: `CCOc1ccc(NC(=O)CN(C)C(=O)c2cc(C)on2)cc1OCC` was tested. Which “hERG current change (%, negative = inhibition) at 10uM” value did it give?
Answer: The value was 17.2%.

Question: How did the “hERG current change (%, negative = inhibition) at 10uM” value turn out when `COc1ccc(N(C)C(=O)C2CCN(S(=O)(=O)c3cccc4nsnc34)CC2)cc1` was run?
Answer: Its value is 16.2%.

Question: `O=C(CN1CCOCC1)Nc1ccc(Br)cc1C(=O)c1ccccc1` was tested. Which “hERG current change (%, negative = inhibition) at 10uM” value did it give?
Answer: The value was -32.4%.

Question: `O=C(Nc1cccc(C(=O)Nc2cccc(C(F)(F)F)c2)c1)c1ccc(=O)[nH]c1` was tested. Which “hERG current change (%, negative = inhibition) at 10uM” value did it give?
Answer: Its value is 10%.

Question: `CC(=O)Oc1cccc(N2C(=O)C3C4C=CC(CC4)C3C2=O)c1` (centres unmarked) was tested. Which “hERG current change (%, negative = inhibition) at 10uM” value did it give?
Answer: The value was 16.1%.

Question: With `CN(C)S(=O)(=O)c1ccc(C(=O)Nc2ccc(CN3CCCC3)cc2)cc1` as the compound, how does the “hERG current change (%, negative = inhibition) at 10uM” value read?
Answer: Its value is -2.62%.

Question: With `COc1ccccc1/C=C/C(=O)NCCC1=CCCCC1` as the compound, how does the “hERG current change (%, negative = inhibition) at 10uM” value read?
Answer: The value was 14.9%.

Question: With `Cc1cccc(NC(=S)NCCCN2CCOCC2)c1` as the compound, how does the “hERG current change (%, negative = inhibition) at 10uM” value read?
Answer: The value was -8.63%.

Question: For `COc1ccc(-n2c(C)nc3c(cnn3-c3ccc(C)cc3)c2=O)cc1`, which “hERG current change (%, negative = inhibition) at 10uM” value is on record?
Answer: The value was -32.2%.

Question: Which “hERG current change (%, negative = inhibition) at 10uM” value does the source give for `Cc1ccc(CN(C(=O)c2csnn2)C(C(=O)NC2CCCC2)c2cccnc2)cc1` (centres unmarked) here?
Answer: The value was -7.95%.
